# Assay results from PubChem BioAssay AID445 (National Center for Advancing Translational Sciences (NCATS), 2006).
# The whole screen tested about 110,000 compounds, of which about 40 (0.04%) were called active. The shares of active, inactive and inconclusive entries below differ from those in the screen. Calls follow the shape of the dose curve; as a rule, active = well fitted curve in the direction sought with a large enough effect in the signal ratio (not every such curve was filed as active); inconclusive = small, poorly fitted or top-dose-only effect, or a change in a side signal; inactive = flat fitted curve, though single readings scatter; the % refers to the signal ratio. A potency beside an inconclusive call is a rough fit, not a confirmed value.
# Assay: IkB Signaling;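 as to IkBa stabilization activation: 0% = basal untreated cells and 100% = reference inhibitor full response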
# Conditions: ABC-DLBCL IkBa-CBG/CBR dual luciferase ratio (green luciferase fused to IkBa over red control in OCI-Ly3 lymphoma cells), 4 h; IkBa stabilization activation: at 57.1 µM (top of the series), scaled: untreated 0%, proteasome inhibitor 100% unless noted
# Procedure, shortened: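 In this assay, an IκBα–CBG68 fusion accumulates when IKK-driven degradation is blocked; native CBR normalizes for cell number. OCI-Ly3 cells were treated 4 h with compound and doxycycline, then green and red light read after Chroma-Glo addition.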
# Potency is read from the fitted curve at half-maximal effect.
Structure (SMILES),IkBa stabilization activation,Potency
CS(=O)(=O)Nc1cccc(-c2ccc3ncnc(NCc4cccs4)c3c2)c1,"inactive: -2.85% [at 11.4 µM, scaled: untreated 0%, proteasome inhibitor 100%]",–
Cn1c(N)c(S(=O)(=O)c2ccc(Br)cc2)c2nc3ccccc3nc21,inactive: 8.23%,–
COc1ccc(N2CCN(C(=O)c3cnn(-c4ccc(OC)cc4)c3C3CCN(C(=O)OC(C)(C)C)CC3)CC2)cc1,inconclusive: -1.18% [signal inhibitor],–
CSc1cccc(NS(=O)(=O)c2ccc(F)cc2)c1,inconclusive: 2.08% [signal inhibitor],–
Cc1c(Cl)cccc1-c1ccc(/C=C(\C#N)c2nc3ccccc3[nH]2)o1,inactive: 18.7%,–
COc1ccccc1N1CCN(c2nc(C)nc3c2oc2ccccc23)CC1,inconclusive: -3.48% [signal inhibitor],–
O=C(CCN1CCc2ccccc2C1)c1ccc2c(c1)OCCO2,inconclusive: 1.77% [signal inhibitor],–
CCNc1nc2c(c(=O)[nH]c(=O)n2C)n1CC(C)C,inactive: -1.51%,–
CCN(CC)c1ccc(NS(=O)(=O)c2cc(-c3cc(C)no3)ccc2C)c(C)c1,inactive: 0.135%,–
Cc1ccc(CNC(=O)C2CCCN(c3ncnc4onc(-c5ccc(F)cc5)c34)C2)cc1 (configuration not stated),inconclusive: 0.126% [signal inhibitor],–
Cc1ccc(C2=CSC3=NCCN23)c(C)c1,–,"inconclusive: 25.1 µM [signal inhibitor, single point]"
CN1CC(=O)Nc2cc(C(=O)O)ccc21,inactive: 1.09%,–
O=C(OCc1nc2ccccc2s1)c1ccc(Br)s1,inactive: 8.85%,–
O=C(CN1C(=O)CCSc2ccccc21)Nc1ccc(C(F)(F)F)cc1,inconclusive: -2.12% [signal inhibitor],–
Nc1cc(C2CCCC2)nn1-c1ccccc1,inactive: 1.22%,–
Cc1ccc(Nc2cc(C)nn2-c2nc(C)cc(=O)[nH]2)cc1,–,"inconclusive: 0.316 µM [rising, full curve]"
CCOc1ccc(NC(=O)CN2CCN(CC(=O)Nc3ccc(F)cc3F)CC2)cc1,inconclusive: 14.6% [signal inhibitor],–
CCn1c(CNC(=O)c2ccc(OC)cc2)nnc1SCC(=O)Nc1cc(C)ccc1C,inactive: 1.85%,–
Cn1c(/C(C#N)=C/c2ccccc2Br)nc2ccccc21,inconclusive: -13.2% [signal inhibitor],–
O=C(/C=C\Nc1ccccn1)c1ccc(Cl)cc1,–,"inconclusive: 3.98 µM [signal inhibitor, partial curve]"
CCc1cccc(NS(=O)(=O)c2ccc3c(c2)CC(C)N3C(=O)C2CC2)c1 (configuration not stated),inconclusive: 0.148% [signal inhibitor],–
COc1ccccc1C(=O)NCc1nc2cccnc2n1Cc1ccc(F)cc1,inactive: 0.0629%,–
O=C(COC(=O)Cn1cnc2ccccc21)NCCC1=CCCCC1,inconclusive: 0.428% [signal inhibitor],–
CCc1c(C)c2ccc(O)c(CN3CCN(c4ccc(F)cc4)CC3)c2oc1=O,inactive: 1.94%,–

Structure (SMILES),IkBa stabilization activation,Potency
CCC(=O)Nc1ccc2nc(C)n(CC(=O)Nc3ccccc3)c(=O)c2c1,inactive: 1.53%,–
Cc1nc(SCn2nnc3ccccc3c2=O)nc(C)c1C,inactive: 0.837%,–
COc1ccc(Cl)cc1NC(=O)CSc1nccn1-c1ccc(Cl)cc1,inconclusive: 0.608% [signal inhibitor],–
Cc1ccc(C)c(N2CCN(C(=O)c3cc(C)nc4c3c(C)nn4-c3ccccc3)CC2)c1,inconclusive: 1.77% [signal inhibitor],–
CCOc1ccc(OCC(=O)Nc2ccc(S(=O)(=O)Nc3cc(C)on3)cc2)cc1,inconclusive: 5.25% [signal inhibitor],–
COc1cc(CN(C(=O)COc2ccc(F)cc2)c2ccccn2)cc(OC)c1OC,inconclusive: 0.116% [signal inhibitor],–
COc1ccc(N2CCN(S(=O)(=O)c3ccc4c(c3)C(C(C)C)C(=O)N4)CC2)cc1 (configuration not stated),inconclusive: 1.95% [signal inhibitor],–
CCC(C)(C)NC(=O)C(c1cccn1C)N(C(=O)Cn1nnc2ccccc21)c1ccccc1OC (configuration not stated),inactive: 0.521%,–
Cc1nc2cc(-c3cccc(F)c3)nn2c(C)c1CCC(=O)NCCc1ccccc1,inconclusive: 11.8% [signal inhibitor],–
Cn1c(=O)c2sccc2n2c(CCCC(=O)Nc3ccc(Oc4ccccc4)cc3)nnc12,inconclusive: 0.977% [signal inhibitor],–
CCOC(=O)COc1ccc(-c2nnn(CC(=O)Nc3ccccc3)n2)cc1,inconclusive: -1.62% [signal inhibitor],–
O=C1CSC(c2cn(-c3ccccc3)nc2-c2ccccc2)N1Cc1ccco1 (configuration not stated),inconclusive: 3.33% [signal inhibitor],–
COc1ccc(-c2noc(CC(=O)N(C)c3cccc(C)c3)n2)cc1,inconclusive: -2.45% [signal inhibitor],–
Cc1ccc(NC(=O)CN2C=NS(=O)(=O)c3ccccc32)cc1,inactive: -0.145%,–
Oc1ccc([C@@H]2CNCc3sccc32)cc1O,inactive: 3.22%,–
CCOC(=O)c1cnc2ccc(Br)cc2c1NCCN1CCOCC1,inconclusive: -3.04% [signal inhibitor],–
COc1cccc(-c2nnc(SCC(=O)OC(C)C)n2N)c1,inactive: 2.05%,–
CCOc1ccccc1N1CCN(S(=O)(=O)c2cccc3nsnc23)CC1,inactive: 4.63%,–
COc1ccc(NC(=O)CSc2oc(-c3cccs3)nc2S(=O)(=O)c2ccccc2)c(OC)c1,inconclusive: -0.088% [signal inhibitor],–
OC1CCN(c2c3c(nc4cc(-c5cccc(F)c5)nn24)CCCC3)CC1,inconclusive: 3.22% [signal inhibitor],–
COc1cccc(CNC(=O)C2CCCN(S(=O)(=O)N(C)c3ccc(F)cc3)C2)c1OC (configuration not stated),inconclusive: -1.48% [signal inhibitor],–
Cc1cccc(NC(=O)CSC2=Nc3ccccc3C3=NC(CC(=O)NCc4cccs4)C(=O)N23)c1 (configuration not stated),inconclusive: 10.8% [signal inhibitor],–
COc1ccc(CNC(=O)CCCn2nc(C)n3c(cc4sccc43)c2=O)cc1,inconclusive: 0.43% [signal inhibitor],–
COCCn1c(C)cc(O)c(C(c2ccccc2OC)N2CCN(c3ccccc3)CC2)c1=O (configuration not stated),inactive: -0.113%,–

Structure (SMILES),IkBa stabilization activation,Potency
CCOc1ccccc1C1C(C(=O)Nc2ccccc2)=C(C)Nc2nc(SCC(=O)c3ccc(C)cc3)nn21 (configuration not stated),inconclusive: -1.77% [signal inhibitor],–
CCCCNC(=O)c1nnn(-c2ccccc2)c1N,–,"inconclusive: 25.1 µM [signal inhibitor, partial curve]"
Cc1ccc2cc3cc(C(=O)N4CCCCC4C)oc3nc2c1 (configuration not stated),inactive: 1.04%,–
CN(C(=O)CSc1nc(-c2ccccc2)no1)c1ccc(F)cc1,–,inconclusive: 5.01 µM [signal inhibitor]
Cc1onc(-c2ccccc2Cl)c1C(=O)OCn1nnc2ccccc2c1=O,inconclusive: 11.6% [signal inhibitor],–
CCOc1ccccc1NC(=O)Nc1nnc(N2CCCC(C)C2)s1 (configuration not stated),inconclusive: 1.34% [signal inhibitor],–
CC1(C)CC2CC(C)(CN2S(=O)(=O)c2ccc(N)cc2)C1 (configuration not stated),inactive: 0.327%,–
Cc1cccc2cc(CN(Cc3cccs3)Cc3nnnn3Cc3ccccc3)c(=O)[nH]c12,inconclusive: 11.4% [signal inhibitor],–
Cc1ccc(-c2nnc(Nc3cccc(Cl)c3)c3ccccc23)cc1S(=O)(=O)N1CCN(C)CC1,–,inconclusive: 12.6 µM [signal inhibitor]
CCN(Cc1ccccc1)c1ncnc2c1cnn2-c1ccc(F)cc1,inconclusive: 0.61% [signal inhibitor],–
Cc1ccc(Cn2c(SCc3ccc(C(=O)N4CCCCC4)cc3)nc3ccncc32)cc1,inconclusive: -0.474% [signal inhibitor],–
CCC(=O)OC1=C(C(C)=O)N(Cc2ccccc2)S(=O)(=O)c2ccccc21,inconclusive: 16.6% [signal inhibitor],–
O=C(O)[C@@H]1CCCN1Cc1ccc2c(c1)OCO2,"inactive: 1% [at 11.4 µM, scaled: untreated 0%, proteasome inhibitor 100%]",–
COC(=O)C1=C(C)N(c2ccc(OC)c(OC)c2)C(=O)C1,inconclusive: 13.9% [signal inhibitor],–
O=C1C2=C(Nc3cc([N+](=O)[O-])ccc3N2)O[C@@H]1c1ccc([C@H]2OC3=C(Nc4ccc([N+](=O)[O-])cc4N3)C2=O)cc1,"inactive: -2.17% [at 11.4 µM, scaled: untreated 0%, proteasome inhibitor 100%]",–
CCC(=O)NCCn1c(C)cc2ccccc21,inactive: -1.75%,–
O=C(N1CCN(c2ccccn2)CC1)N1c2ccccc2Sc2ccccc21,inactive: -2.42%,–
COc1ccccc1CNC(=O)C(=O)NCC(c1ccco1)S(=O)(=O)c1ccc(C)cc1 (configuration not stated),inconclusive: 0.559% [signal inhibitor],–
CCCCCn1c(CCCNC(=O)c2ccc(Cl)cc2)nc2ccccc21,inconclusive: 5.32% [signal inhibitor],–
COc1ccc(CNC(=O)CCc2nnc3n(C)c(=O)c4sccc4n23)cc1,inactive: -1.3%,–
COc1ccc(-c2nc(C(=O)Nc3cccc(C(C)=O)c3)nn2-c2ccccc2Cl)cc1,inconclusive: 1.28% [signal inhibitor],–
CCOc1cc(-c2nc(-c3ccc(-c4ccccc4)nc3OCC)no2)cc(OCC)c1OCC,inconclusive: 1.56% [signal inhibitor],–
Cc1nnc2sc(-c3cccc(NC(=O)c4ccc(-c5cccc(Cl)c5)o4)c3)nn12,inconclusive: 2.11% [signal inhibitor],–
O=C(NCc1ccccc1Cl)c1ccccc1NC(=O)c1nsc2ccccc12,inconclusive: 8.77% [signal inhibitor],–
